{"source": "the supplement of paper PMC3334620", "note": "Whole data set: some 33,000 sequences, median “E-score (-0.5 to 0.5)” near -0.056, cut for the highest 2% near 0.38. This is one part of the list."}
{"molecular_target": "Stb4 (UniProt P50104)", "test": "PBM E-score (8-mer binding enrichment) (E-score (-0.5 to 0.5)); higher = stronger / more preferred TF binding; most listed sequences are background and not binding sites", "details": "protein concentration: 200 nM; construct: GST-DNA-binding domain", "procedure,_shortened": "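Bound GST-tagged yeast transcription factors, applied at about 100-200 nM to double-stranded universal all-10-mer Agilent arrays, were detected with fluorescent anti-GST. Scans were normalised with masliner. A modified Wilcoxon-Mann-Whitney statistic, the E-score, was assigned to each ungapped eight-base word pooled with its reverse complement by the Universal PBM Analysis Suite.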"}
{"sequence": "GGATTTGA", "PBM E-score": 0.0899}
{"sequence": "CGTCCCCA", "PBM E-score": 0.0177}
{"sequence": "CCGCTATC", "PBM E-score": 0.211}
{"sequence": "CTCTGCAC", "PBM E-score": -0.0656}
{"sequence": "AATACGCC", "PBM E-score": 0.0807}
{"sequence": "AAAGCACT", "PBM E-score": 0.0131}
{"sequence": "ACAAGGAT", "PBM E-score": 0.00875}
{"sequence": "GAATAATA", "PBM E-score": 0.00562}
{"sequence": "GACGGTTA", "PBM E-score": 0.132}
{"sequence": "CTGGTGAA", "PBM E-score": -0.205}
{"sequence": "ACGGAACC", "PBM E-score": 0.328}
{"sequence": "CTACGTAC", "PBM E-score": -0.0854}
{"sequence": "CATTATCG", "PBM E-score": -0.0461}
{"sequence": "ATCGGTCA", "PBM E-score": -0.0132}
{"sequence": "AAAAGTCA", "PBM E-score": -0.185}
{"sequence": "CGCTAAAG", "PBM E-score": -0.111}
{"sequence": "AAGGTACA", "PBM E-score": -0.341}
{"sequence": "ACTTGTGC", "PBM E-score": -0.0204}
{"sequence": "CAAAGAGA", "PBM E-score": -0.147}
{"sequence": "ATAACTCC", "PBM E-score": 0.158}
{"sequence": "AAATCCTC", "PBM E-score": 0.00135}
{"sequence": "TCGTTGAA", "PBM E-score": -0.0617}
{"sequence": "GCTGGCCC", "PBM E-score": -0.156}
{"sequence": "CTTTACAC", "PBM E-score": 0.0285}
{"sequence": "CAGCAGAG", "PBM E-score": -0.208}
{"sequence": "AAGCGTCC", "PBM E-score": -0.193}
{"sequence": "AGATATGC", "PBM E-score": -0.104}
{"sequence": "CTGCACCC", "PBM E-score": 0.0152}
{"sequence": "CTATTTTC", "PBM E-score": 0.124}
{"sequence": "CGAGGAAA", "PBM E-score": 0.154}
{"sequence": "ATGACGGC", "PBM E-score": 0.0972}
{"sequence": "GCGCTGAC", "PBM E-score": -0.0933}
{"sequence": "CATATACA", "PBM E-score": -0.105}
{"sequence": "ACCGAGCT", "PBM E-score": 0.365}
{"sequence": "GGATGCCC", "PBM E-score": 0.0918}
{"sequence": "CTAGGTAC", "PBM E-score": 0.0229}
{"sequence": "CATCCCAG", "PBM E-score": -0.134}
{"sequence": "ATGGTCAA", "PBM E-score": -0.164}
{"sequence": "CGCAGACA", "PBM E-score": -0.087}
{"sequence": "CATAGTGA", "PBM E-score": -0.165}
{"sequence": "ATATTCCA", "PBM E-score": 0.0331}
{"sequence": "CAAGCGCG", "PBM E-score": -0.0205}
{"sequence": "GGCTAATA", "PBM E-score": 0.148}
{"sequence": "AGAAAGGG", "PBM E-score": -0.138}
{"sequence": "CGAGATCC", "PBM E-score": 0.275}
{"sequence": "ACAAGCTG", "PBM E-score": -0.292}
{"sequence": "AGGAGGTG", "PBM E-score": -0.278}
{"sequence": "ATCGAGAA", "PBM E-score": -0.157}
{"sequence": "CACCTAAA", "PBM E-score": -0.0736}
{"sequence": "AAGCAGTA", "PBM E-score": -0.173}
{"sequence": "GCGTAGCC", "PBM E-score": -0.0878}
{"sequence": "CATGGTCA", "PBM E-score": -0.155}
{"sequence": "CTAATTCC", "PBM E-score": 0.183}
{"sequence": "AGTCACGG", "PBM E-score": 0.219}
{"sequence": "AGGCGCAT", "PBM E-score": -0.035}
{"sequence": "CACACGCC", "PBM E-score": 0.127}
{"sequence": "CGCTTTGC", "PBM E-score": 0.11}
{"sequence": "GTCTTCTA", "PBM E-score": -0.0723}
{"sequence": "GATAGGCC", "PBM E-score": 0.0357}
{"sequence": "GATTACCC", "PBM E-score": 0.207}
{"sequence": "CAAAATCG", "PBM E-score": 0.0159}
{"sequence": "ACGTCCCG", "PBM E-score": 0.299}
{"sequence": "CCTAAGGC", "PBM E-score": -0.293}
{"sequence": "GACCCGAA", "PBM E-score": 0.428}
{"sequence": "GCGAGACA", "PBM E-score": -0.137}
{"sequence": "CAATCATC", "PBM E-score": -0.0315}
{"sequence": "AGTTCTGG", "PBM E-score": -0.154}
{"sequence": "CAATCATG", "PBM E-score": -0.203}
{"sequence": "ACCATGCA", "PBM E-score": -0.0846}
{"sequence": "GATTCGCA", "PBM E-score": -0.0177}
{"sequence": "ACCGCCAT", "PBM E-score": -0.0369}
{"sequence": "AAGCCCAC", "PBM E-score": -0.123}
{"sequence": "CTTCGCCA", "PBM E-score": -0.131}
{"sequence": "CTGGCCGA", "PBM E-score": 0.189}
{"sequence": "ACAATGGC", "PBM E-score": -0.112}
{"sequence": "GTACTGAA", "PBM E-score": 0.0336}
{"sequence": "CGGATCCC", "PBM E-score": 0.38}
{"sequence": "AGACTTGC", "PBM E-score": -0.143}
{"sequence": "ACGCGTCC", "PBM E-score": 0.212}
{"sequence": "AGCATTTA", "PBM E-score": -0.108}
{"sequence": "CTGGCAGC", "PBM E-score": -0.168}
{"sequence": "AGCACCGC", "PBM E-score": -0.047}
{"sequence": "AGCTGAAG", "PBM E-score": -0.133}
{"sequence": "TAGAAGCA", "PBM E-score": -0.236}
{"sequence": "AGGTGTTG", "PBM E-score": -0.153}
{"sequence": "TCATTCAA", "PBM E-score": 0.0206}
{"sequence": "GGAGTGAA", "PBM E-score": 0.0534}
{"sequence": "GTGTCGGA", "PBM E-score": 0.395}
{"sequence": "ACCGCACC", "PBM E-score": 0.0783}
{"sequence": "AACCATAA", "PBM E-score": -0.2}
{"sequence": "CAATAATA", "PBM E-score": -0.041}
{"sequence": "CCCAAACC", "PBM E-score": 0.0374}
{"sequence": "CAGCCTTA", "PBM E-score": -0.142}
{"sequence": "AAGTGGAA", "PBM E-score": 0.0014}
{"sequence": "CGAACCTC", "PBM E-score": 0.142}
{"sequence": "AACGGTGC", "PBM E-score": -0.15}
{"sequence": "ACTGGGCC", "PBM E-score": -0.0135}
{"sequence": "GGGACCTA", "PBM E-score": 0.0524}
{"sequence": "AGAGTCTA", "PBM E-score": -0.315}
{"sequence": "CGCACACG", "PBM E-score": -0.053}
{"sequence": "GTCAAGAA", "PBM E-score": -0.188}
{"sequence": "ATTGTGAC", "PBM E-score": -0.139}
{"sequence": "ATTTAAAA", "PBM E-score": 0.131}
{"sequence": "CTGAGGGA", "PBM E-score": -0.284}
{"sequence": "GCAGTTTA", "PBM E-score": -0.0965}
{"sequence": "GTACGCAA", "PBM E-score": -0.173}
{"sequence": "CCCAAGTA", "PBM E-score": -0.12}
{"sequence": "CCCGGCAC", "PBM E-score": 0.234}
{"sequence": "AATCAAGG", "PBM E-score": 0.0313}
{"sequence": "CTAGCAGA", "PBM E-score": -0.157}
{"sequence": "AAGTCCAT", "PBM E-score": -0.188}
{"sequence": "GACGCAAC", "PBM E-score": 0.0213}
{"sequence": "ATCCATCC", "PBM E-score": 0.243}
{"sequence": "ACAAGGTC", "PBM E-score": -0.224}
{"sequence": "CATCATGC", "PBM E-score": -0.231}
{"sequence": "AAGCGGAA", "PBM E-score": 0.319}
{"sequence": "GTAAGCCA", "PBM E-score": -0.162}
{"sequence": "ATTTCTTG", "PBM E-score": 0.0395}
{"sequence": "CATTATGC", "PBM E-score": 0.0226}
{"sequence": "AGTGAAAC", "PBM E-score": -0.138}
{"sequence": "CCCATATA", "PBM E-score": 0.0483}
{"sequence": "GGGACACA", "PBM E-score": -0.0587}
{"sequence": "CCCATCCG", "PBM E-score": 0.324}
{"sequence": "ATATTCTC", "PBM E-score": -0.0217}
{"sequence": "CATATGAC", "PBM E-score": -0.132}
{"sequence": "GAGTTACA", "PBM E-score": 0.0652}
{"sequence": "GCACTTCA", "PBM E-score": 0.0951}
{"sequence": "CATCACCG", "PBM E-score": 0.077}
{"sequence": "CGGATCTC", "PBM E-score": 0.3}
{"sequence": "TCTGAAAA", "PBM E-score": -0.00585}
{"sequence": "CATATAAA", "PBM E-score": -0.288}
{"sequence": "GAGCCACC", "PBM E-score": 0.0154}
{"sequence": "ATGCAAAA", "PBM E-score": -0.0417}
{"sequence": "CCTCGAAC", "PBM E-score": -0.249}
{"sequence": "CTCTCGGA", "PBM E-score": 0.452}
{"sequence": "CGGTGAGC", "PBM E-score": 0.0243}
{"sequence": "ATAGTGTC", "PBM E-score": -0.00418}
{"sequence": "CCGCTCGA", "PBM E-score": 0.11}
{"sequence": "AACCGAAC", "PBM E-score": 0.356}
{"sequence": "CGCAAGTA", "PBM E-score": -0.0842}
{"sequence": "CCTGTCTA", "PBM E-score": -0.149}
{"sequence": "AGTTCACG", "PBM E-score": 0.0168}
{"sequence": "CCTGGCGC", "PBM E-score": 0.028}
{"sequence": "CCGAGAAG", "PBM E-score": 0.386}
{"sequence": "CCGACAAA", "PBM E-score": 0.281}
{"sequence": "CGCTTCGC", "PBM E-score": 0.00575}
{"sequence": "AAGTTCAC", "PBM E-score": 0.0108}
{"sequence": "CAACTCCC", "PBM E-score": 0.0384}
{"sequence": "CCCTGTAC", "PBM E-score": -0.363}
{"sequence": "AACCCAAT", "PBM E-score": -0.265}
{"sequence": "CAACCCAC", "PBM E-score": -0.0464}
{"sequence": "AATGGACA", "PBM E-score": -0.213}
{"sequence": "TGTTATAA", "PBM E-score": 0.0243}
{"sequence": "GCGGAGAA", "PBM E-score": 0.109}
{"sequence": "AGCTAGTG", "PBM E-score": -0.155}
{"sequence": "GTTAAGAA", "PBM E-score": 0.0467}
{"sequence": "ATTCACGG", "PBM E-score": 0.194}
{"sequence": "CCTCGTGA", "PBM E-score": -0.089}
{"sequence": "CACGTATG", "PBM E-score": -0.105}
{"sequence": "CGGAATCA", "PBM E-score": 0.388}
{"sequence": "AAATGGAG", "PBM E-score": -0.0189}
{"sequence": "GGCCTTCA", "PBM E-score": -0.123}
{"sequence": "ACACGGGA", "PBM E-score": 0.234}
{"sequence": "AACCGACA", "PBM E-score": 0.286}
{"sequence": "CAATTTGG", "PBM E-score": -0.172}
{"sequence": "CGTACCGC", "PBM E-score": 0.18}
{"sequence": "CTCCCACA", "PBM E-score": -0.073}
{"sequence": "GCTTGTCA", "PBM E-score": 0.0226}
{"sequence": "AACACTTC", "PBM E-score": 0.117}
{"sequence": "CTATGGGC", "PBM E-score": -0.154}
{"sequence": "ATCGGCAC", "PBM E-score": 0.34}
{"sequence": "ACCACCCT", "PBM E-score": -0.162}
